From PubChem BioAssay AID485294 (National Center for Advancing Translational Sciences (NCATS), 2010)
Out of some 370,000 compounds screened, about 150 (0.041%) were called active. Inconclusive results, whose numbers are uncertain, are shown with a selection of clear calls. Calls follow the shape of the dose curve; as a rule, active = well fitted inhibition curve with a large enough effect; inconclusive = small, poorly fitted or top-dose-only effect; inactive = flat fitted curve, though single readings scatter. Potencies of inconclusive entries are left out as doubtful fits.
Also: nearly all actives have a fitted effect of over 25% in size.
Potency is read from the fitted curve at half-maximal effect; tags tell the direction and shape of the fitted curve.

These molecules were tested against Beta-lactamase (Escherichia coli (strain K12)) (UniProt P00811) (assay: qHTS Inhibitors of AmpC Beta-Lactamase (assay with detergent)). Settings: AmpC hydrolysis of nitrocefin, absorbance 480 nm, 0.01% Triton; series mostly up to 114 µM.
Sequence of UniProt P00811 (P00811 whole entry, looked up): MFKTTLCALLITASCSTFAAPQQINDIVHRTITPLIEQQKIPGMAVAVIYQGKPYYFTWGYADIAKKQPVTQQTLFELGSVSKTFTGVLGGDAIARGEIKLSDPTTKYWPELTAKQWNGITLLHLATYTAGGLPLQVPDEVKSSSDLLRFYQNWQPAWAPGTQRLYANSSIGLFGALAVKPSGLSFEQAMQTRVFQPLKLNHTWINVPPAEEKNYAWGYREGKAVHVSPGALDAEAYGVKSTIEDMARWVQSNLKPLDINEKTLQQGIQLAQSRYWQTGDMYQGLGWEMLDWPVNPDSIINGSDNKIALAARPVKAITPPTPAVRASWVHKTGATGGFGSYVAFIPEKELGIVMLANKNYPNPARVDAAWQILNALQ
Summary of the method: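 AmpC (5.3 nM in the dispensed reagent) in 20 mM phosphate pH 7.0 with 0.01% (detergent screen) or 0.0001% Triton X-100 was preincubated with compounds for 15 min at room temperature. Nitrocefin was then added from an 800 uM solution, and hydrolysis was followed at 480 nm.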
With Cc1ccn2cc(CSc3ccccc3N)nc2c1 the Potency was “inactive”.
CCCCn1c(N)c(N(CCOC)C(=O)CSCc2ccc(C)cc2)c(=O)[nH]c1=O was tested, and the Potency was “inactive”.
For COc1ccc(C(C[N+](=O)[O-])n2nc(C)cc2C)cc1 (configuration not stated), the Potency was inconclusive [inhibitor, full curve, poor fit].
For COc1cc(C=O)ccc1OCC(=O)Nc1cccc(S(=O)(=O)N(C)c2ccccc2)c1, the Potency was inconclusive [inhibitor, full curve, poor fit].
With CCC1CCCCN1C(=O)CSc1nc2c(cnn2-c2ccc(C)cc2)c(=O)[nH]1 (configuration not stated) the Potency was inconclusive [inhibitor, single point].
For COCC(=O)N/N=C\c1cccc(OC)c1OC/C=C/c1ccccc1, the Potency was inconclusive [inhibitor, full curve, poor fit].
For COc1cccc(=O)c2c(C)n(-c3cc(C)cc(C)c3)c(C)c12, the Potency was “inactive”.
For COc1ccc(N(CC(=O)N2CCCCCC2)S(=O)(=O)c2ccccc2[N+](=O)[O-])c(OC)c1, the Potency was inconclusive [inhibitor, partial curve].
O=C(Nc1ccccc1C(=O)NC1CCCCC1)c1ccccc1 was tested, and the Potency was “inactive”.
In the case of Cc1ccc(NCc2nnc(SCC(=O)NCCc3ccccc3)n2C)cc1, the Potency is reported as inconclusive [inhibitor, partial curve, poor fit].
For Cc1cc(C)c(S(=O)(=O)N2CCN(C(=O)C3CC3)CC2)c(C)c1, the Potency was inconclusive [inhibitor, full curve, poor fit].
With CCc1ccc(NC(=O)Cn2c(=O)n(CCC(=O)NC3CCN(Cc4ccccc4)CC3)c(=O)c3ccccc32)cc1 the Potency was “inactive”.
NC(=O)C1CCN(C(=O)CCSCc2ccccc2)CC1 was tested, and the Potency was “inactive”.
O=C(OCc1nnc(-c2ccccc2)o1)C1CC(=O)N(c2ccccc2)C1 (configuration not stated) was tested, and the Potency was inconclusive [inhibitor, full curve].
In the case of Cn1cccc1/C=N/NC(=O)Cn1cnc2ccccc21, the Potency is reported as inconclusive [inhibitor, full curve, poor fit].
NC(=S)n1[nH]c(-c2ccc([N+](=O)[O-])cc2)c(N=Nc2cccc(Cl)c2)c1=O was tested, and the Potency was “inactive”.
With COCC(=O)N(C)C1(c2nnnn2CCOC(=O)Nc2cccc3ccccc23)CCCC1 the Potency was inconclusive [inhibitor, partial curve].
COC(=O)c1cc(C)sc1NC(=O)c1cccnc1 was tested, and the Potency was inconclusive [inhibitor, full curve].
In the case of Cc1csc(NC(=O)C2C3C=CC(C3)C2C(=O)O)n1 (configuration not stated), the Potency is reported as inconclusive [inhibitor, full curve, poor fit].
For NC(=O)C1(N2CCCCC2)CCN(C2CC(=O)NC2=O)CC1 (configuration not stated), the Potency was inconclusive [inhibitor, full curve, poor fit].
For Cc1ccccc1NC(=O)Cc1nc(COC(=O)/C=C/c2ccccc2)cs1, the Potency was inconclusive [inhibitor, full curve, poor fit].
In the case of Cn1c(NCC2CCCO2)nc2c1c(=O)n(Cc1ccccc1)c(=O)n2C (configuration not stated), the Potency is reported as inconclusive [inhibitor, partial curve].
For COc1ccc([N+](=O)[O-])cc1NC(=O)c1ccc(Br)s1, the Potency was inconclusive [inhibitor, full curve, poor fit].
With Cc1ccc(C(=O)c2coc3ccc(OCC(=O)O)cc23)cc1 the Potency was inconclusive [inhibitor, single point].
With Cc1ccc(S(=O)(=O)N/N=c2\sc3ccccc3n2C)cc1 the Potency was “inactive”.
For Cc1nnc(SCc2ccon2)n1-c1ccccc1, the Potency was inconclusive [inhibitor, full curve, poor fit].
In the case of COc1ccc(OC)c(-c2nc(C(=O)NCC3CCCO3)cc3c2[nH]c2ccccc23)c1 (configuration not stated), the Potency is reported as inconclusive [inhibitor, full curve, poor fit].
CCN(CC)C(=O)CC(c1ccc(N(C)C)cc1)c1c(OC)cc(OC)c2c(-c3ccccc3)cc(=O)oc12 (configuration not stated) was tested, and the Potency was “inactive”.
CCN(CC)c1ccc(C2CC(=O)NC3=C2C(=O)CC(C)(C)C3)cc1 (configuration not stated) was tested, and the Potency was inconclusive [inhibitor, full curve, poor fit].
With CCOC(=O)C1CCCN(Cc2ccc(OC)c(OCc3ccccc3)c2)C1 (configuration not stated) the Potency was inconclusive [inhibitor, full curve, poor fit].
NC(=O)C1(N2CCCCC2)CCN(C(=O)CSc2nc3ccccc3[nH]2)CC1 was tested, and the Potency was inconclusive [inhibitor, single point].
With Cc1cc(C(=O)CSc2nncs2)c(C)n1-c1ccc2c(c1)OCO2 the Potency was inconclusive [inhibitor, partial curve, poor fit].
In the case of CC(NC(=O)Cc1cccs1)c1ccc2c(c1)OCO2 (configuration not stated), the Potency is reported as inconclusive [inhibitor, single point].
In the case of O=C(c1cnn2c(C(F)F)cc(C3CC3)nc12)N1CCc2ccccc2C1, the Potency is reported as inconclusive [inhibitor, full curve, poor fit].
With O=C(NCCc1ccccc1F)C1CCCN(c2nc3ccccc3s2)C1 (configuration not stated) the Potency was “inactive”.
For Oc1ccc2ccccc2c1CNc1ccc(Br)cn1, the Potency was “inactive”.
With O=S1(=O)N=C(N/N=C/c2cccs2)c2ccccc21 the Potency was inconclusive [inhibitor, partial curve].
For COc1cc(NC(=O)COC(=O)CC(NC(C)=O)c2ccccc2)cc(OC)c1 (configuration not stated), the Potency was inconclusive [inhibitor, partial curve, poor fit].
CC(C)CN(C(=O)COC(=O)CCc1c[nH]c2ccccc12)c1c(N)n(Cc2ccccc2)c(=O)[nH]c1=O was tested, and the Potency was “inactive”.
In the case of CC1Oc2ccccc2N(CC(=O)N2CCc3ccccc32)C1=O (configuration not stated), the Potency is reported as inconclusive [inhibitor, partial curve, poor fit].
With COc1cc(C(=O)Oc2cc(C)[nH]c(=O)c2[N+](=O)[O-])cc(OC)c1OC the Potency was inconclusive [inhibitor, partial curve, poor fit].
In the case of CC(NC(=O)c1ccccc1)c1nc2ccccc2n1Cc1ccc(Cl)cc1 (configuration not stated), the Potency is reported as “inactive”.
